# Assay results reported in the supplement of paper PMC9334596.
# Several values for one entry are separate records, joined by “and”; a condition that tells them apart may be missing. Equal entries are not always repeated. In all, about 5,300 compounds were measured (“PER2::LUC luminescence relative to vehicle control”: median about 0.96, highest 2% from about 1.3 on). This is one part of the list.
# Test system: mPer2Luc MEF
# Assay: PER2::LUC luminescence relative to vehicle control (fold of vehicle); higher = higher PER2::LUC reporter signal
# Details: 10 µM
# In short: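 In 384-well plates, ~3000 mPer2Luc reporter mouse embryonic fibroblasts per well were cultured in DMEM with 10% FBS at 37 °C and 5% CO2 for 48 h before compounds from commercial libraries were added at 10 μM. ONE-Glo luciferase readings were taken 24 h and 30 h after treatment. Each value is PER2::LUC luminescence given as fold of vehicle control.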
Structure (SMILES),PER2::LUC luminescence (time after treatment 24 h),PER2::LUC luminescence (time after treatment 30 h)
COC1=CC(=O)O[C@@H](CCc2ccc3c(c2)OCO3)C1,0.859,0.763
CCC(=O)CCCCC[C@@H]1NC(=O)[C@H]2CCCCN2C(=O)[C@H]([C@@H](C)CC)NC(=O)[C@H](Cc2cn(OC)c3ccccc23)NC1=O,1.09,1.1
CCN(CC)C(C)C(=O)c1ccccc1 (stereo unspecified),1.07,1.11
CCC1(O)C(=O)OCc2c1cc1n(c2=O)Cc2cc3ccccc3nc2-1 (stereo unspecified),0.427,0.351
O=C1CCCN1CC#CCN1CCCC1,1.17,1.08
c1cncc([C@@H]2CCCN2)c1,0.795,0.811
CC1(C)C(C=C(Cl)Cl)C1C(=O)OC(C#N)c1cccc(Oc2ccccc2)c1 (stereo unspecified),1.06,1.1
Oc1cc(Cl)ccc1Oc1ccc(Cl)cc1Cl,0.979,0.849
CCCN(CCC)C1CCc2ccc(O)cc2C1 (stereo unspecified),0.975 and 0.96,1.04 and 0.898
c1ccc(C2(c3ccccc3)CC2C2=NCCN2)cc1 (stereo unspecified),0.894,0.805
C/C=C1\C[C@@H](C)[C@](O)(CO)C(=O)OCC2=CCN3CC[C@@H](OC1=O)[C@@H]23,1.01,0.958
CC1=C2[C@H]3OC(=O)[C@@H](C)[C@@H]3CC[C@@]2(C)C=CC1=O,0.962,0.964
CCC(N)C(O)c1ccc(O)c(O)c1 (stereo unspecified),1.2 and 0.593,0.876 and 0.965
C[C@](O)(COc1ccc(C#N)cc1)C(=O)Nc1ccc(C#N)c(C(F)(F)F)c1,1.12 and 1.15,0.984 and 1.16
CN1C[C@H](CO)C=C2c3cccc4[nH]cc(c34)C[C@H]21,1.03,0.981
CC(N)Cc1c[nH]c2ccc(O)cc12 (stereo unspecified),1.09,1.16
CN(N=O)c1cc(O)ccc1O,1.02,1.27
C[C@H]1CCC[C@H](O)CCCCCc2cc(O)cc(O)c2C(=O)O1,0.833,0.805
COc1ccc(CCN2CCC(Nc3nc4ccccc4n3Cc3ccc(F)cc3)CC2)cc1,0.334,0.157
Cc1c([C@H](C)[C@@H]2NC[C@@H](C)C[C@H]2O)ccc2c1C[C@H]1[C@H]2CC=C2C[C@@H](O)CC[C@@]21C,0.905,0.795
CC(=O)O[C@H]1C[C@H](O[C@H]2[C@@H](O)C[C@H](O[C@H]3[C@@H](O)C[C@H](O[C@H]4CC[C@@]5(C)[C@H](CC[C@@H]6[C@@H]5C[C@@H](O)[C@]5(C)[C@@H](C7=CC(=O)OC7)CC[C@]65O)C4)O[C@@H]3C)O[C@@H]2C)O[C@H](C)[C@H]1O[C@@H]1O[C@H](CO)[C@@H](O)[C@H](O)[C@H]1O,1.08,1.16
CC(=O)Nc1ccc(OC[C@](C)(O)C(=O)Nc2ccc([N+](=O)[O-])c(C(F)(F)F)c2)cc1,1.17,1.24
CC(CN)CC(=O)O (stereo unspecified),0.986,1.06
